The supplement of paper PMC4967469
IC50 is the fitted dose that halves viability relative to control wells, and lower means more sensitive; a fit beyond the top or the lowest dose is shown as a bound at that dose. AUC, from the same fit, is the share of area under the viability curve across the 256-fold dose range; the more sensitive the line, the further below 1. For some assays here: The top dose, if marked as inferred, was calculated from the reported fits.

What was measured:
Experiment in all cases: Viability of human cancer cell lines after 72 h of drug (GDSC screen)
CI-1040 = compound: O=C(NOCC1CC1)c1ccc(F)c(F)c1Nc1ccc(I)cc1Cl [CI-1040]; conditions: top dose 10 µM; top dose inferred
Procedure: (§1)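 Human cancer cell lines in 384-well plates, medium with 10% serum, drug for 72 h over a 256-fold dose range (nine 2-fold or five 4-fold steps up to the top dose). Adherent lines were fixed and stained with the nucleic acid dye Syto60, suspension lines read with resazurin; signal relative to control wells, capped at 0 and 100%. One two-parameter sigmoid per drug and line, fitted in a mixed model over all curves with the slope shared within a line.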

IPA-3 = compound: Oc1ccc2ccccc2c1SSc1c(O)ccc2ccccc12 [IPA-3]; conditions: top dose 32 µM; top dose inferred
Procedure: as §1

XL-880 = compound: COc1cc2c(Oc3ccc(NC(=O)C4(C(=O)Nc5ccc(F)cc5)CC4)cc3F)ccnc2cc1OCCCN1CCOCC1 [XL-880]; conditions: top dose 5.12 µM; top dose inferred
Procedure: as §1

Tubastatin A = compound: CN1CCc2c(c3ccccc3n2Cc2ccc(C(=O)NO)cc2)C1 [Tubastatin A]; conditions: top dose 20 µM
Procedure: as §1

Temozolomide = compound: Cn1nnc2c(C(N)=O)ncn2c1=O [Temozolomide]; conditions: top dose 30 µM
Procedure: as §1

Cell Line | AUC (CI-1040) | IC50 (CI-1040) [µM] | AUC (IPA-3) | IC50 (IPA-3) [µM] | AUC (XL-880) | IC50 (XL-880) [µM] | AUC (Tubastatin A) | IC50 (Tubastatin A) [µM] | AUC (Temozolomide) | IC50 (Temozolomide) [µM]
NCI-H2029 (small cell lung carcinoma, adherent) | 0.982 | > 10 | 0.992 | > 32 | 0.807 | 2.32 | 0.99 | > 20 | 0.992 | > 30
BICR22 (head and neck, adherent) | 0.664 | 1.93 | 0.983 | > 32 | 0.73 | 1.62 | 0.966 | > 20 | 0.944 | > 30
NCI-H2452 (mesothelioma, adherent) | 0.887 | > 10 | 0.981 | > 32 | 0.969 | > 5.12 | 0.984 | > 20 | 0.969 | > 30
LU-135 (small cell lung carcinoma, suspension) | 0.975 | > 10 | 0.861 | 19.9 | 0.431 | 0.215 | 0.92 | > 20 | 0.986 | > 30
KP-3 (pancreas, adherent) | 0.893 | > 10 | 0.975 | > 32 | 0.62 | 0.733 | 0.966 | > 20 | 0.965 | > 30
EFO-21 (ovary, adherent) | 0.914 | > 10 | 0.909 | > 32 | 0.701 | 1.52 | 0.973 | > 20 | 0.974 | > 30
NCI-H2023 (lung adenocarcinoma, adherent) | 0.922 | > 10 | 0.967 | > 32 | 0.781 | 2.68 | 0.981 | > 20 | 0.98 | > 30
COLO-678 (large intestine, semi-adherent) | 0.742 | 3.86 | 0.985 | > 32 | 0.809 | 3.69 | 0.983 | > 20 | 0.981 | > 30
YAPC (pancreas, adherent) | 0.961 | > 10 | 0.985 | > 32 | 0.75 | 2.04 | 0.985 | > 20 | 0.982 | > 30
KP-2 (pancreas, adherent) | 0.734 | 3.09 | 0.827 | 21.7 | 0.667 | 0.976 | 0.971 | > 20 | 0.961 | > 30
JHH-2 (liver, adherent) | 0.847 | 8.26 | 0.986 | > 32 | 0.602 | 0.622 | 0.986 | > 20 | 0.984 | > 30
OVMIU (ovary, adherent) | 0.678 | 2.24 | 0.888 | > 32 | 0.589 | 0.595 | 0.833 | 17.7 | 0.977 | > 30
IGR-37 (melanoma, adherent) | 0.272 | 0.151 | 0.792 | 13.1 | 0.658 | 0.843 | 0.895 | > 20 | 0.988 | > 30
EGI-1 (biliary tract, adherent) | 0.755 | 4.34 | 0.982 | > 32 | 0.676 | 1.16 | 0.982 | > 20 | 0.959 | > 30
OCUM-1 (stomach, adherent) | 0.373 | 0.267 | 0.975 | > 32 | 0.894 | > 5.12 | 0.985 | > 20 | 0.985 | > 30
Ca9-22 (head and neck, adherent) | 0.751 | 3.08 | 0.815 | 16 | 0.698 | 1.1 | 0.971 | > 20 | 0.987 | > 30
Ca-Ski (cervix, adherent) | 0.904 | > 10 | 0.983 | > 32 | 0.514 | 0.35 | 0.922 | > 20 | 0.935 | > 30
H3255 (lung adenocarcinoma, adherent) | 0.908 | > 10 | 0.94 | > 32 | 0.871 | > 5.12 | 0.968 | > 20 | 0.933 | > 30
SKG-IIIa (cervix, adherent) | 0.941 | > 10 | 0.982 | > 32 | 0.983 | > 5.12 | 0.981 | > 20 | 0.975 | > 30
SW1417 (large intestine, adherent) | 0.796 | 5.6 | 0.979 | > 32 | 0.71 | 1.4 | 0.977 | > 20 | 0.985 | > 30
T47D (breast, adherent) | 0.942 | > 10 | 0.839 | > 32 | 0.85 | > 5.12 | 0.878 | > 20 | 0.97 | > 30
NCI-H2342 (lung adenocarcinoma, adherent) | 0.921 | > 10 | 0.738 | 10.4 | 0.826 | 3.55 | 0.983 | > 20 | 0.981 | > 30
NCI-H727 (lung carcinoid, adherent) | 0.59 | 1.3 | 0.732 | 14.6 | 0.772 | 3.48 | 0.954 | > 20 | 0.969 | > 30
C3A (liver, adherent) | 0.93 | > 10 | 0.876 | > 32 | 0.871 | > 5.12 | 0.988 | > 20 | 0.958 | > 30
SAS (head and neck, adherent) | 0.863 | > 10 | 0.832 | 23.7 | 0.624 | 0.73 | 0.981 | > 20 | 0.982 | > 30
NCI-H2009 (lung adenocarcinoma, adherent) | 0.749 | 3.4 | 0.639 | 4.97 | 0.801 | 2.67 | 0.978 | > 20 | 0.982 | > 30
